The source of these data is PMC12820563, “FoxP3 forms a head-to-head dimer in vivo and stabilizes its multimerization on adjacent microsatellites”.

Some of the results follow.

This test addresses T1, MBP-FoxP1dN (Mus musculus, UniProt P58462 326-579).
T1 sequence: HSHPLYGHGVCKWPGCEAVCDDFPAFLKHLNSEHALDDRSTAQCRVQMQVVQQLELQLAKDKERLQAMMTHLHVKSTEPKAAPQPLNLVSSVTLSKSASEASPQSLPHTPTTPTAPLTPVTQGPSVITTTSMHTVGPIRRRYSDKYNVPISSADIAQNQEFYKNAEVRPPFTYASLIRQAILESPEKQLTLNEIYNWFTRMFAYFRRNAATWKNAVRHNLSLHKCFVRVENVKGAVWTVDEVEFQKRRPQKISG
The test can be described thus: PD-seq (MBP pull-down with sequencing); 20 mM Tris-HCl pH 7.5, 100 mM NaCl, 1.5 mM MgCl2, 0.4 uM protein, 0.1 uM dsDNA library, 30 min, room temperature, amylose pull-down; high values mean tight binding. The note with it: protein: recombinant; tags: His6-MBP; chain copies: 2; dsDNA, one strand shown. The essentials: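 A fragment of mouse FoxP3 or FoxP1 without its N-terminus, carrying a His6-MBP tag and produced in E. coli, was combined at 0.4 µM with a 0.1 µM degenerate double-stranded DNA library filled in with Klenow. The mixture sat for 30 min at room temperature in Tris pH 7.5 buffer containing NaCl and MgCl2. Protein–DNA complexes were captured on amylose resin, washed three times, and the DNA was freed with proteinase K, barcoded by PCR and sequenced on Illumina. Binding is expressed as reads-per-million enrichment of pull-down over input, with replicates pooled.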
Take “GATGATTGTTCTCCCAGCTGATGAATTTCAGGTATCGAGTAAACAAATTTTCCTAATCTTTCTGTTCAAGCGCCATCTAC”: the binding signal was 0.919 RPM ratio (pull-down/input).

In the case of “GATGATTGTTCTCCCAGCTGATGAATTTCACAAGTCGAGTAAACAAATTTTCCTAATCTTTCTGTTCAAGCGCCATCTAC”, the binding signal is 0.872 RPM ratio (pull-down/input).

Turning to “GATGATTGTTCTCCCAGCTGATGAATTGTCGGTTTCGAGTAAACAAATTTTCCTAATCTTTCTGTTCAAGCGCCATCTAC”, the binding signal was 0.995 RPM ratio (pull-down/input).

With “GATGATTGTTCTCCCAGCTGATGAATTCAAAGCATCGAGTAAACAAATTTTCCTAATCTTTCTGTTCAAGCGCCATCTAC”, the binding signal is 1.04 RPM ratio (pull-down/input).

Consider “GATGATTGTTCTCCCAGCTGATGAATTGGCTTGGTCGAGTAAACAAATTTTCCTAATCTTTCTGTTCAAGCGCCATCTAC”, for which the binding signal was 0.762 RPM ratio (pull-down/input).

Take “GATGATTGTTCTCCCAGCTGATGAATTACTAACATCGAGTAAACAAATTTTCCTAATCTTTCTGTTCAAGCGCCATCTAC”: the binding signal was 1.77 RPM ratio (pull-down/input).

As for “GATGATTGTTCTCCCAGCTGATGAATTCGTGCCATCGAGTAAACAAATTTTCCTAATCTTTCTGTTCAAGCGCCATCTAC”, the binding signal was 0.962 RPM ratio (pull-down/input).

For “GATGATTGTTCTCCCAGCTGATGAATTGCAACTATCGAGTAAACAAATTTTCCTAATCTTTCTGTTCAAGCGCCATCTAC”, the binding signal is 1.59 RPM ratio (pull-down/input).

As to “GATGATTGTTCTCCCAGCTGATGAATTCGGATGTTCGAGTAAACAAATTTTCCTAATCTTTCTGTTCAAGCGCCATCTAC”, the binding signal was 0.864 RPM ratio (pull-down/input).

With “GATGATTGTTCTCCCAGCTGATGAATTCACTGACTCGAGTAAACAAATTTTCCTAATCTTTCTGTTCAAGCGCCATCTAC”, the binding signal was 0.861 RPM ratio (pull-down/input).

Take “GATGATTGTTCTCCCAGCTGATGAATTCCTTCTCTCGAGTAAACAAATTTTCCTAATCTTTCTGTTCAAGCGCCATCTAC”: the binding signal was 0.736 RPM ratio (pull-down/input).

Consider “GATGATTGTTCTCCCAGCTGATGAATTCCGTCGTTCGAGTAAACAAATTTTCCTAATCTTTCTGTTCAAGCGCCATCTAC”, for which the binding signal was 0.868 RPM ratio (pull-down/input).

For “GATGATTGTTCTCCCAGCTGATGAATTAAGCATCTCGAGTAAACAAATTTTCCTAATCTTTCTGTTCAAGCGCCATCTAC”, the binding signal was 1.16 RPM ratio (pull-down/input).

Take “GATGATTGTTCTCCCAGCTGATGAATTGGCTCGGTCGAGTAAACAAATTTTCCTAATCTTTCTGTTCAAGCGCCATCTAC”: the binding signal was 0.79 RPM ratio (pull-down/input).

In the case of “GATGATTGTTCTCCCAGCTGATGAATTGATAACGTCGAGTAAACAAATTTTCCTAATCTTTCTGTTCAAGCGCCATCTAC”, the binding signal is 1.07 RPM ratio (pull-down/input).

As to “GATGATTGTTCTCCCAGCTGATGAATTGGCAAAATCGAGTAAACAAATTTTCCTAATCTTTCTGTTCAAGCGCCATCTAC”, the binding signal is 1.05 RPM ratio (pull-down/input).

On to “GATGATTGTTCTCCCAGCTGATGAATTGATGTTCTCGAGTAAACAAATTTTCCTAATCTTTCTGTTCAAGCGCCATCTAC”, for which the binding signal is 1.18 RPM ratio (pull-down/input).

For “GATGATTGTTCTCCCAGCTGATGAATTGACAGTATCGAGTAAACAAATTTTCCTAATCTTTCTGTTCAAGCGCCATCTAC”, the binding signal was 1.26 RPM ratio (pull-down/input).

As to “GATGATTGTTCTCCCAGCTGATGAATTTAGGCAATCGAGTAAACAAATTTTCCTAATCTTTCTGTTCAAGCGCCATCTAC”, the binding signal is 1.15 RPM ratio (pull-down/input).

For the sequence “GATGATTGTTCTCCCAGCTGATGAATTCTCCTCCTCGAGTAAACAAATTTTCCTAATCTTTCTGTTCAAGCGCCATCTAC”, the binding signal was 0.88 RPM ratio (pull-down/input).

For “GATGATTGTTCTCCCAGCTGATGAATTGGGCCCTTCGAGTAAACAAATTTTCCTAATCTTTCTGTTCAAGCGCCATCTAC”, the binding signal was 0.812 RPM ratio (pull-down/input).

Regarding “GATGATTGTTCTCCCAGCTGATGAATTTTGTTAGTCGAGTAAACAAATTTTCCTAATCTTTCTGTTCAAGCGCCATCTAC”, the binding signal is 1.82 RPM ratio (pull-down/input).

In the case of “GATGATTGTTCTCCCAGCTGATGAATTATAACTGTCGAGTAAACAAATTTTCCTAATCTTTCTGTTCAAGCGCCATCTAC”, the binding signal was 0.963 RPM ratio (pull-down/input).

For the sequence “GATGATTGTTCTCCCAGCTGATGAATTAAGAAAATCGAGTAAACAAATTTTCCTAATCTTTCTGTTCAAGCGCCATCTAC”, the binding signal is 0.996 RPM ratio (pull-down/input).

Consider “GATGATTGTTCTCCCAGCTGATGAATTTGCTTCTTCGAGTAAACAAATTTTCCTAATCTTTCTGTTCAAGCGCCATCTAC”, for which the binding signal is 1.02 RPM ratio (pull-down/input).

In the case of “GATGATTGTTCTCCCAGCTGATGAATTCCAATTGTCGAGTAAACAAATTTTCCTAATCTTTCTGTTCAAGCGCCATCTAC”, the binding signal is 0.99 RPM ratio (pull-down/input).

Take “GATGATTGTTCTCCCAGCTGATGAATTTGGATTATCGAGTAAACAAATTTTCCTAATCTTTCTGTTCAAGCGCCATCTAC”: the binding signal was 1.05 RPM ratio (pull-down/input).

For the sequence “GATGATTGTTCTCCCAGCTGATGAATTCTCTTAGTCGAGTAAACAAATTTTCCTAATCTTTCTGTTCAAGCGCCATCTAC”, the binding signal is 0.855 RPM ratio (pull-down/input).

On to “GATGATTGTTCTCCCAGCTGATGAATTATGGTCCTCGAGTAAACAAATTTTCCTAATCTTTCTGTTCAAGCGCCATCTAC”, for which the binding signal is 0.889 RPM ratio (pull-down/input).

With “GATGATTGTTCTCCCAGCTGATGAATTGCTTAGCTCGAGTAAACAAATTTTCCTAATCTTTCTGTTCAAGCGCCATCTAC”, the binding signal was 1.01 RPM ratio (pull-down/input).

Turning to “GATGATTGTTCTCCCAGCTGATGAATTCCCCTTCTCGAGTAAACAAATTTTCCTAATCTTTCTGTTCAAGCGCCATCTAC”, the binding signal was 0.774 RPM ratio (pull-down/input).

As for “GATGATTGTTCTCCCAGCTGATGAATTACAACGATCGAGTAAACAAATTTTCCTAATCTTTCTGTTCAAGCGCCATCTAC”, the binding signal was 1.25 RPM ratio (pull-down/input).
